Test results published in PubChem BioAssay AID1159614 (National Center for Advancing Translational Sciences (NCATS), 2016).
About 65 (0.1%) of roughly 45,000 compounds were called active. Calls follow the shape of the dose curve; as a rule, active = well fitted activation curve with a large enough effect; inconclusive = small, poorly fitted or top-dose-only effect; inactive = no such curve, though single readings can be large or run the other way. The list shows a part of the results.

biological target: Galactocerebrosidase (Homo sapiens) (UniProt P54803); experiment: A Novel Cell-Based Assay to Identify Small Molecules for B -Galactocerebrosidase; conditions: 145M-Twi-hGALC-G270D cells (Twitcher mouse brain line with human GALC G270D), HMU-beta-Gal fluorescence, 48 h; series mostly up to 57.5 µM; activation: at the top concentration; also: 0% is about no effect; nearly all actives have a fitted effect of over 65% in size
UniProt P54803, sequence (P54803 whole entry, looked up): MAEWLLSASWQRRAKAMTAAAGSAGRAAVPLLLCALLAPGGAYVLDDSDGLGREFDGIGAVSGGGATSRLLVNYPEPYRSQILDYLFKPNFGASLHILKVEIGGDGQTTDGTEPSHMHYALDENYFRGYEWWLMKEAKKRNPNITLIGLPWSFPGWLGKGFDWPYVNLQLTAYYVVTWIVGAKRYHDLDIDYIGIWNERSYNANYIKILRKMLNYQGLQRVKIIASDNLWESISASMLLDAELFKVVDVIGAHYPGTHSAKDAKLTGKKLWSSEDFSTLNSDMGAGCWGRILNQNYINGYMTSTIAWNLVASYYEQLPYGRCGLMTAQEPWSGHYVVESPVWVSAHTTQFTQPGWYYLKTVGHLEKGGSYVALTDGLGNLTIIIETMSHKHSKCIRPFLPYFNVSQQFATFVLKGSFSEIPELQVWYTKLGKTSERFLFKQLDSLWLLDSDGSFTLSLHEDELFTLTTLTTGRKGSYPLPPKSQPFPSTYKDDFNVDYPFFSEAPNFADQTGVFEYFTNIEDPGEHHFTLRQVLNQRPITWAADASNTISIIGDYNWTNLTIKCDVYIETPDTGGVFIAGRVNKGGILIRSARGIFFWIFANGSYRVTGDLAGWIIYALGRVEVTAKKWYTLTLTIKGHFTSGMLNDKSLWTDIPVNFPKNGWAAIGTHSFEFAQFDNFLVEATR
In short: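 Fluorogenic HMU-b-Gal hydrolysis (0.1 mM final, pH 5.2 citrate-phosphate with 1 mg/mL sodium taurocholate; carbonate stop buffer) measures mutant GALC activity after compound treatment of live 145M-Twi Twitcher brain cells stably carrying human GALC-G270D, with wild-type GALC line alongside; activation sought.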

activation, inactive:
CN(C(=O)CSc1nc2ccccc2n1CC(=O)N(C)C1CCCCC1)c1ccccc1 -19%, Cc1ccc2c(CNC3CCCC3)c(C(=O)O)n(Cc3ccc(F)cc3)c2c1 -20.6%, CCCCNC(=O)CCn1c(=O)c2ccccc2n(Cc2cccc(Cl)c2)c1=O -1.36%, COc1cccc(NC(=O)Nc2ccc3nc(N4CCN(C)CC4)cc(C)c3c2)c1 -8.12%, Cc1noc(/C=C/c2ccccc2F)c1S(=O)(=O)N1CCC(C(=O)Nc2ccc(C#N)cc2)CC1 1.34%, CCOC(=O)C1CCCN(C(=O)c2ccc3c(c2)N(Cc2ccc(Cl)cc2)C(=O)c2ccccc2S3=O)C1 (stereo not drawn) -13.5%, Cc1ccc(C)c(NC(=O)c2cc(S(=O)(=O)NCCc3ccccc3)ccc2F)c1 -13.8%, COc1ccc(NC(=O)C2CCN(S(=O)(=O)c3cc(-c4noc(C)n4)ccc3C)CC2)cc1 -11.7%, Cc1cccc(NC(=O)CN2C(=O)CCn3nc(-c4cccn4C)cc32)c1C -9.39%, O=C(Nc1cccc(C(F)(F)F)c1)Nc1cccs1 -9.56%, O=C(CSc1nnc2scc(-c3ccccc3)n12)Nc1ccc(Cl)cc1 -8.62%, CCOC(=O)c1ccc(NC(=O)c2ccc(CN3C(=O)CCn4nc(C)cc43)cc2)cc1 -7.35%, CCOc1ccc(CNC(=O)CCn2c(=O)c3cccn3c3ccc(F)cc32)cc1 -1%, CCCCN(CC)C(=O)C1CCCN(c2ncnc3c2nc2n3CCCCC2)C1 (stereo not drawn) -17.1%, O=C(CSc1nc2ccsc2c(=O)n1-c1ccc(Br)cc1)NCc1ccccc1 -22.7%, Cc1ccccc1Cn1cnc2nc3c(cc2c1=O)CC(C)CC3 (stereo not drawn) -10.1%, Cc1cc(N2CCCCC2)nc2ccc(NC(=O)/C=C/c3ccc(OCCC(C)C)cc3)cc12 -27.3%, CCc1cccc(C)c1NC(=O)CCCn1nc(C)c2sc3ccccc3c2c1=O -9.47%, O=C(Cn1c(=O)c2ccccc2n2nncc12)Nc1cccc(F)c1 -15.6%, O=C(NCc1nc2ccccc2[nH]1)c1cccc(Cl)c1 0.0069%, COc1ccc(NC(=O)NCCn2nnc3cc(S(=O)(=O)N(C)C)ccc32)cc1 -10.5%, CCOC(=O)c1c(C)[nH]c(C)c1S(=O)(=O)N(C)CC(=O)NCc1cccc(Br)c1 7.31%, CCc1cccc(C)c1NC(=O)CCCN1C(=O)C(c2ccccc2)Oc2cccnc21 (stereo not drawn) -18.5%, CC1CCN(c2ccc(-c3nc(-c4ccccc4)no3)cc2[N+](=O)[O-])CC1 -13.8%, O=C(NC1CCCCC1)c1ccc(CSc2nc3ccncc3n2Cc2ccccc2F)cc1 -15.3%, COc1ccc(NC(=O)CSc2nc(-c3cccs3)cc(C(F)(F)F)n2)c(OC)c1 -10.2%, Cc1ccc(NC(=O)Cn2cc3c(n2)CCCC3)c(C)c1 -13.9%, COCCCNC(=O)c1ccc2c(c1)nc1n2CCCCC1 8.56%, CCOc1ccc2nc(N3CCC(C(=O)Nc4cc(C)ccc4C)CC3)sc2c1 -12.5%, Cc1ccc(Cl)cc1NC(=O)CCn1c(=O)c2cccn2c2cccnc21 -6.51%, Cc1noc(Cn2c(=O)c3cc4c(cc3n(CC(=O)Nc3ccccc3F)c2=O)OCO4)n1 -13.4%, O=C(CSCc1cnn(-c2ccccc2)c1-n1cccc1)NCc1ccc(F)cc1 -16.7%, CCN(CC)CCCNC(=O)CSc1nc(-c2ccc(OC)cc2)cc(C(F)(F)F)n1 -19.6%, CCc1ccc(NC(=O)CSc2ccc(-c3cccs3)nn2)cc1 -3.56%, Oc1c(C(c2ccccc2Cl)N2CCN(Cc3ccccc3)CC2)sc2nc(-c3ccco3)nn12 (stereo not drawn) -1.67%, CCOc1ccc(NC(=O)c2ccc3snnc3c2)cc1 -13%, Cc1nc(N2CCCC2)c2c(C(=O)Nc3ccc(Br)cc3F)c(C)oc2n1 0.563%, CCOC(=O)C1CCC(CN(Cc2ccc(OC)cc2)S(=O)(=O)c2ccc(F)c(C(=O)Nc3cc(C)ccc3C)c2)CC1 (stereo not drawn) -10.3%, CCOC(=O)c1cnc2ccc(OCC)cc2c1N1CCN(c2ccccc2F)CC1 -18.2%, CC(=O)c1cc(-c2ccccc2)n(CC(=O)NCCc2ccc(C)cc2)c1C -9.39%, CC(C)Oc1ccc(CNC(=O)C2CCN(C(=O)N3CC(C)Oc4ccccc43)CC2)cc1 (stereo not drawn) -16.1%, CCOC(=O)c1ccc(CN(Cc2ccccc2)S(=O)(=O)c2ccc(Cl)cc2)cc1 -0.72%, Cc1cccc(-c2nc(CSc3nncn4c3cc3sccc34)c(C)o2)c1 -9.07%, FC(F)(F)c1cc(-c2cccc(Br)c2)nc2ncnn12 -1.19%, CCOC(=O)c1c(C)n(-c2ccccc2)c2ccc(OC(=O)c3cccc(Cl)c3)cc12 -9.34%, Cc1ccccc1C(=O)Nc1nc(-c2ccc(Br)cc2)ns1 -14.6%, COc1ccc(-c2csc3nc(-c4ccccc4)oc(=O)c23)cc1OC -3.26%, CC(C)NC(=O)C1CCC(Cn2c(=O)c3sccc3n(CC(=O)Nc3ccccc3)c2=O)CC1 (stereo not drawn) -15.8%, CCCCCNC(=O)c1cc2c(=O)n3ccccc3nc2n1C -3.13%, CN(C)C(=O)c1ccc(NC(=O)Cn2nc(-c3ccccc3)c3ccccc3c2=O)cc1 -15.4%, Clc1cccc(-n2ncc3c(NCCc4ccccc4)ncnc32)c1 -6.84%, CCCOc1ccc(C2C(=O)N(C3CCCCC3)CC(=O)N2CCc2ccccc2)cc1OC (stereo not drawn) 4.53%, CCOC(=O)c1cccc(NS(=O)(=O)c2cc(-c3cnc(C)o3)ccc2OC)c1 -3.53%, CC(=O)Nc1ccc(OCc2cc(=O)n3ccccc3n2)cc1 -11.7%, COc1cccc(CN2CCc3nc(Nc4ccc5c(c4)OCCO5)ncc3C2)c1OC -3.74%, COc1ccccc1N1CCN(C(CNC(=O)C(=O)NCCN(C)C)c2cccnc2)CC1 (stereo not drawn) -8.68%, Cc1cccc(NC(=O)c2c(NC(=O)c3cccs3)sc3c2CCC(C)C3)c1 (stereo not drawn) -18.4%, CCCCNC(=O)C(CC)Sc1nnc(-c2ccc(F)cc2)c(-c2ccc(F)cc2)n1 (stereo not drawn) -19.8%, Cc1ccc(-c2noc(-c3ccccc3NC(=O)C3CC(=O)N(c4cccc(C)c4)C3)n2)cc1 (stereo not drawn) -0.944%, Cc1cccc(NC(=O)CSc2nc(=O)n(Cc3ccncc3)c3c2CCC3)c1C 5.12%, CCOc1ccc(NC(=O)c2cc(=O)c3cc(CC)ccc3o2)cc1 -2.86%, CCc1ccc(C2=C(C)C(N3CCC(C(=O)Nc4cccc(OC)c4)CC3)=NS2(=O)=O)cc1 -20.2%, CCOc1ccc(NC(=O)CSc2nc(-c3cccs3)cc(C(F)(F)F)c2C#N)cc1 -11.5%
